{"source": "PubChem BioAssay AID2675", "about": "(National Center for Advancing Translational Sciences (NCATS), 2010)", "note": "The whole screen tested about 280,000 compounds, of which about 100 (0.036%) were called active. The inconclusive results got no clear call from the source; some entries with a clear call stand among them for comparison. The call rests on the fitted dose curve; in most records, active means well fitted inhibition curve with a large enough effect in the signal ratio, with a control signal flat (not every such curve was filed as active); inconclusive means small, poorly fitted or top-dose-only effect, or effect the other way, or a change in a side signal; inactive means no such curve, though single readings can be large or run the other way; the % refers to the signal ratio. Potencies of inconclusive entries are doubtful fits and often do not repeat. A note “side channel” means that the fit belongs to a control or component signal, not to the main read-out. Potency means the concentration at half of the fitted maximal effect; tags describe the fitted curve by direction and shape or compound fluorescence and quenching."}
{"biological_target": "Muscleblind-like protein 1 (Homo sapiens) (UniProt Q9NR56)", "sequence (Q9NR56 whole entry, looked up)": "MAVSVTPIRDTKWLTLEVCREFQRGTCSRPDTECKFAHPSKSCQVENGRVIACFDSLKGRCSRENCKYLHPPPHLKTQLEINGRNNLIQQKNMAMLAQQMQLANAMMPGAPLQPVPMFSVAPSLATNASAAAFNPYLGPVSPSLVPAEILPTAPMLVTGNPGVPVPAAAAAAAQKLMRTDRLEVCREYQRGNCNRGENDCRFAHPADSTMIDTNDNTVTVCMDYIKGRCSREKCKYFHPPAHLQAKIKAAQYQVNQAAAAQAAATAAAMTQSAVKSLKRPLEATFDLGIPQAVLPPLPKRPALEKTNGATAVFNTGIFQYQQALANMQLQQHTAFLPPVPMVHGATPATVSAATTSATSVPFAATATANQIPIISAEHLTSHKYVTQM", "assay": "qHTS Assay for Inhibitors of MBNL1-poly(CUG) RNA binding", "conditions": "TR-FRET MBNL1-His/biotin-(CUG)12 binding, 665/545 ratio; series mostly up to 57.5 µM", "how_it_was_run": "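Inhibition of protein-RNA binding appears as loss of TR-FRET between terbium anti-His antibody on MBNL1-His and streptavidin-XL665 on biotin-(CUG)12. Activity is normalized to buffer-only and uninhibited-complex controls.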"}
{"smiles": "COC(=O)c1cccc(N2C(=O)c3cccnc3C2=O)c1", "Potency": "inconclusive: 12.6 µM [quencher, side channel, partial curve]"}
{"smiles": "Nn1cnc2cc3ccccc3cc2c1=O", "Potency": "inconclusive: 39.8 µM [quencher, side channel, single point]"}
{"smiles": "COc1ccc(Nc2nc(N)c(C(=O)c3ccc(OC)cc3)s2)cc1", "Potency": "inconclusive: 31.6 µM [quencher, side channel, single point]"}
{"smiles": "OCC1(CCOc2ccccc2)CCN(CC2=Cc3cc(Cl)ccc3OC2)CC1", "Potency": "inactive"}
{"smiles": "O=[N+]([O-])c1c(N2CCN(CCO)CC2)nc2ccccn12", "Potency": "inconclusive: 35.5 µM [quencher, side channel, partial curve]"}
{"smiles": "COc1cc2cc(C(c3nnnn3C3CCCCC3)N(C)C3CCCCC3)c(=O)[nH]c2cc1OC", "note": "(stereo not given)", "Potency": "inconclusive: 15.8 µM [quencher, partial curve]"}
{"smiles": "CCOC(=O)c1c(NC(=S)Nc2cccnc2)sc(C)c1C", "Potency": "inactive"}
{"smiles": "CCOC(=O)c1sc2nc3n(c(=O)c2c1C)CCC(C)CC3", "note": "(stereo not given)", "Potency": "inactive"}
{"smiles": "Cc1onc(-c2ccccc2)c1C(=O)NC(=S)NNC(=O)c1ccc(O)cc1", "Potency": "inconclusive: 1.41 µM [fluorescent, side channel, full curve, poor fit]"}
{"smiles": "COc1ccc(-c2cc(C(F)(F)F)nc(SCC(=O)N3CC(C)OC(C)C3)n2)cc1OC", "note": "(stereo not given)", "Potency": "inconclusive: 39.8 µM [quencher, side channel, single point]"}
{"smiles": "O=C(Cc1cccc2ccccc12)NNC(=O)c1cccs1", "Potency": "inactive"}
{"smiles": "O=c1c2cnn(-c3ccccc3)c2ncn1CCc1ccccc1", "Potency": "inconclusive: 25.1 µM [inhibitor, partial curve]"}
{"smiles": "N#CC1=C2N=C(N)c3c(sc4c3CCCCC4)N2C2=C(C(=O)CCC2)C1c1ccccc1", "note": "(stereo not given)", "Potency": "inconclusive: 28.2 µM [quencher, single point]"}
{"smiles": "COc1ccc(C(C(=O)NCC2CCCO2)N(C(=O)c2snc(C(N)=O)c2N)c2ccc(C)cc2)cc1OC", "note": "(stereo not given)", "Potency": "inconclusive: 25.1 µM [quencher, side channel, single point]"}
{"smiles": "CC(C)NC(=O)COc1coc(CN2CCN(c3ccccc3)CC2)cc1=O", "Potency": "inactive"}
{"smiles": "CCSc1nnc(N2C(=O)C(O)=C(C(=O)c3ccco3)C2c2cccc(OC)c2)s1", "note": "(stereo not given)", "Potency": "inconclusive: 28.2 µM [quencher, side channel, single point]"}
{"smiles": "Cc1cc(Nc2cccc([N+](=O)[O-])c2)c2cccc(C)c2n1", "Potency": "inconclusive: 20 µM [quencher, side channel, partial curve]"}
{"smiles": "O=C1OC(NC(=O)c2ccccc2)C(N2CCOCC2)=C1Cl", "note": "(stereo not given)", "Potency": "inconclusive: 0.631 µM [quencher, side channel, single point]"}
{"smiles": "Cc1c([N+](=O)[O-])cc(C(=O)Oc2cccc(C(=S)N3CCOCC3)c2)cc1[N+](=O)[O-]", "Potency": "inconclusive: 25.1 µM [quencher, side channel, partial curve]"}
{"smiles": "CN(C)c1cc(-c2ccc(Cl)cc2)oc(=O)c1Cl", "Potency": "inconclusive: 15.8 µM [quencher, side channel, partial curve]"}
{"smiles": "Cc1ccc(S(=O)(=O)CCc2nnc(NC(=O)c3cnccn3)s2)cc1", "Potency": "inactive"}
{"smiles": "O=C(NCCCN1CCOCC1)c1sc2cc([N+](=O)[O-])ccc2c1Cl", "Potency": "inconclusive: 7.94 µM [quencher, side channel, partial curve]"}
{"smiles": "Cc1ccc(O)c(Nc2ncnc3ccc([N+](=O)[O-])cc23)c1", "Potency": "inconclusive: 10 µM [quencher, side channel, partial curve]"}
{"smiles": "CC1(C)Cc2c(cnn2-c2ccc(F)cc2)C(NC(=O)C2=NNC(=O)CC2)C1", "note": "(stereo not given)", "Potency": "inactive"}
{"smiles": "Cc1nn(C)c(C)c1Nc1ccc(N2C(=O)C3C4C=CC(C4)C3C2=O)cc1[N+](=O)[O-]", "note": "(stereo not given)", "Potency": "inconclusive: 12.6 µM [quencher, partial curve]"}
{"smiles": "Cc1ccc(Nc2nc(-c3sc(N)nc3C)cs2)cc1", "Potency": "inconclusive: 20 µM [quencher, side channel, partial curve]"}
{"smiles": "O=C(O)CCSCCCN1C(=O)c2cccc3cccc(c23)C1=O", "Potency": "inconclusive: 39.8 µM [quencher, partial curve]"}
{"smiles": "CCOc1cc(/C=C2\\CN(C)C/C(=C\\c3ccc(O)c(OCC)c3)C2=O)ccc1O", "Potency": "inactive"}
{"smiles": "CCc1nnc(NS(=O)(=O)c2ccc(N3C(=O)c4ccc(C(=O)O)cc4C3=O)cc2)s1", "Potency": "inconclusive: 31.6 µM [quencher, side channel, single point]"}
{"smiles": "Cc1[nH]c(=O)[nH]c(=O)c1/C=N/NC(=O)[C@@H](N)CC(C)C", "Potency": "inactive"}
{"smiles": "O=C(O)CCC(=O)N1c2ccccc2NC2=C(C(=O)CC(c3ccc(F)cc3)C2)C1c1ccc([N+](=O)[O-])o1", "note": "(stereo not given)", "Potency": "inconclusive: 14.1 µM [quencher, side channel, partial curve]"}
{"smiles": "Cc1ccc(SCc2nc(-c3ccncc3)no2)cc1", "Potency": "inactive"}
{"smiles": "Cc1ccc(S(=O)(=O)/N=C(/NC(=S)Nc2cccc(C)c2)c2ccccc2)cc1", "Potency": "inactive"}
{"smiles": "CCOc1ccc(NC(c2ccccn2)c2oc(CO)cc(=O)c2O)cc1", "note": "(stereo not given)", "Potency": "inconclusive: 20 µM [quencher, side channel, single point]"}
{"smiles": "COCC(C)NC(=O)c1ccc2nc(-c3ccccc3)c(-c3ccccc3)nc2c1", "note": "(stereo not given)", "Potency": "inconclusive: 44.7 µM [quencher, partial curve, poor fit]"}
{"smiles": "CC(=O)n1cc([C@H]2C=C(C(=O)N3CCN(Cc4ccccc4)CC3)O[C@@H](OCCCCO)C2)c2ccccc21", "Potency": "inconclusive: 35.5 µM [quencher, side channel, single point]"}
{"smiles": "CC1(C)Oc2ccc(C(=O)NC3CCCC3)cc2N(CC(=O)NC2CCCC2)C1=O", "Potency": "inactive"}
{"smiles": "CCOc1ccc(NC(=S)Nc2cccc3cnccc23)cc1", "Potency": "inconclusive: 14.1 µM [quencher, side channel, partial curve]"}
{"smiles": "CCn1c(-c2nn(-c3ccccc3)ccc2=O)n[nH]c1=S", "Potency": "inactive"}
{"smiles": "COc1ccc(CCNC(=O)C2CC(=O)N(c3ccc(F)cc3)C2)cc1OC", "note": "(stereo not given)", "Potency": "active: 0.794 µM"}
